IC50 is the fitted dose that halves viability relative to control wells, and lower means more sensitive; fits outside the tested doses are given as limits. AUC, from the same fit, is the share of area under the viability curve across the 256-fold dose range; values near 1 show little effect. For some of these results: Where the top dose is marked as inferred, it comes from the curve model; the source does not state it.
Key:
Assay in all cases: Viability of human cancer cell lines after 72 h of drug (GDSC screen)
BMX-IN-1 (QL-XII-61) = compound: C=CC(=O)Nc1cc(-n2c(=O)ccc3cnc4ccc(-c5ccc(NS(C)(=O)=O)cc5)cc4c32)ccc1C [BMX-IN-1 (QL-XII-61)]; conditions: top dose 10 µM; top dose inferred
Description: (§1)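 Human cancer cell lines in 384-well plates, medium with 10% serum, drug for 72 h over a 256-fold dose range (nine 2-fold or five 4-fold steps up to the top dose). Adherent lines were fixed and stained with the nucleic acid dye Syto60, suspension lines read with resazurin; signal relative to control wells, capped at 0 and 100%. One two-parameter sigmoid per drug and line, fitted in a mixed model over all curves with the slope shared within a line.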

17-AAG = compound: C=CCNC1=C2C[C@@H](C)C[C@H](OC)[C@H](O)[C@@H](C)/C=C(\C)[C@H](OC(N)=O)[C@@H](OC)/C=C\C=C(/C)C(=O)NC(=CC1=O)C2=O [17-AAG]; conditions: top dose 1 µM
Description: as §1

CCT018159 = compound: CCc1cc(-c2n[nH]c(C)c2-c2ccc3c(c2)OCCO3)c(O)cc1O [CCT018159]; conditions: top dose 10 µM; top dose inferred
Description: as §1

BIX02189 = compound: CN(C)Cc1cccc(N=C(c2ccccc2)c2c(O)[nH]c3cc(C(=O)N(C)C)ccc23)c1 [BIX02189]; conditions: top dose 20 µM; top dose inferred
Description: as §1

Dimethyloxalylglycine = compound: COC(=O)CNC(=O)C(=O)OC [Dimethyloxalylglycine]; conditions: top dose 4000 µM; top dose inferred
Description: as §1

OSI-027 = compound: COc1cccc2cc(-c3nc([C@H]4CC[C@H](C(=O)O)CC4)n4ncnc(N)c34)[nH]c12 [OSI-027]; conditions: top dose 20 µM
Description: as §1

Vismodegib = compound: CS(=O)(=O)c1ccc(C(=O)Nc2ccc(Cl)c(-c3ccccn3)c2)c(Cl)c1 [Vismodegib]; conditions: top dose 10 µM; top dose inferred
Description: as §1

VX-11e = compound: Cc1cnc(Nc2ccc(F)cc2Cl)nc1-c1c[nH]c(C(=O)N[C@H](CO)c2cccc(Cl)c2)c1 [VX-11e]; conditions: top dose 5.12 µM; top dose inferred
Description: as §1

TG101348 = compound: Cc1cnc(Nc2ccc(OCCN3CCCC3)cc2)nc1Nc1cccc(S(=O)(=O)NC(C)(C)C)c1 [TG101348]; conditions: top dose 10.24 µM
Description: as §1

UNC1215 = compound: O=C(c1ccc(C(=O)N2CCC(N3CCCC3)CC2)c(Nc2ccccc2)c1)N1CCC(N2CCCC2)CC1 [UNC1215]; conditions: top dose 1 µM; top dose inferred
Description: as §1

Row | Cell Line | AUC (BMX-IN-1 (QL-XII-61)) | IC50 (BMX-IN-1 (QL-XII-61)) [µM] | AUC (17-AAG) | IC50 (17-AAG) [µM] | AUC (CCT018159) | IC50 (CCT018159) [µM] | AUC (BIX02189) | IC50 (BIX02189) [µM] | AUC (Dimethyloxalylglycine) | IC50 (Dimethyloxalylglycine) [µM] | AUC (OSI-027) | IC50 (OSI-027) [µM] | AUC (Vismodegib) | IC50 (Vismodegib) [µM] | AUC (VX-11e) | IC50 (VX-11e) [µM] | AUC (TG101348) | IC50 (TG101348) [µM] | AUC (UNC1215) | IC50 (UNC1215) [µM]
1 | A427 (non-small cell lung carcinoma, adherent) | 0.985 | > 10 | 0.767 | 0.377 | 0.855 | 8.09 | 0.939 | > 20 | 0.658 | 691 | 0.904 | > 20 | 0.97 | > 10 | 0.967 | > 5.12 | 0.924 | > 10.2 | 0.985 | > 1
2 | NB1 (neuroblastoma, semi-adherent) | 0.96 | > 10 | 0.607 | 0.127 | 0.933 | > 10 | 0.963 | > 20 | 0.483 | 224 | 0.824 | 13.6 | 0.984 | > 10 | 0.897 | > 5.12 | 0.763 | 4.04 | 0.982 | > 1
3 | HCC1954 (breast, adherent) | 0.977 | > 10 | 0.867 | > 1 | 0.876 | > 10 | 0.985 | > 20 | 0.605 | 509 | 0.457 | 0.938 | 0.973 | > 10 | 0.985 | > 5.12 | 0.944 | > 10.2 | 0.982 | > 1
4 | TOV-112D (ovary, adherent) | 0.956 | > 10 | 0.641 | 0.154 | 0.902 | > 10 | 0.949 | > 20 | 0.3 | 68.2 | 0.141 | 0.0927 | 0.973 | > 10 | 0.899 | > 5.12 | 0.814 | 5.64 | 0.981 | > 1
5 | A2780 (ovary, semi-adherent) | 0.687 | 2.14 | 0.626 | 0.141 | 0.76 | 3.64 | 0.872 | > 20 | 0.79 | 1850 | 0.191 | 0.144 | 0.985 | > 10 | 0.549 | 0.437 | 0.555 | 0.911 | 0.973 | > 1
6 | Capan-2 (pancreas, adherent) | 0.915 | > 10 | 0.67 | 0.207 | 0.975 | > 10 | 0.955 | > 20 | 0.567 | 397 | 0.83 | 16.3 | 0.985 | > 10 | 0.941 | > 5.12 | 0.794 | 5.86 | 0.983 | > 1
7 | BT-20 (breast, adherent) | 0.982 | > 10 | 0.757 | 0.42 | 0.894 | > 10 | 0.983 | > 20 | 0.662 | 790 | 0.669 | 4.17 | 0.934 | > 10 | 0.984 | > 5.12 | 0.916 | > 10.2 | 0.982 | > 1
8 | HCC1569 (breast, adherent) | 0.955 | > 10 | 0.822 | 0.863 | 0.859 | > 10 | 0.96 | > 20 | 0.781 | 2270 | 0.426 | 0.732 | 0.953 | > 10 | 0.976 | > 5.12 | 0.755 | 4.54 | 0.978 | > 1
9 | HCC38 (breast, adherent) | 0.964 | > 10 | 0.733 | 0.308 | 0.944 | > 10 | 0.943 | > 20 | 0.696 | 932 | 0.494 | 1.2 | 0.978 | > 10 | 0.98 | > 5.12 | 0.701 | 2.48 | 0.985 | > 1
10 | NCI-H747 (large intestine, adherent) | 0.961 | > 10 | 0.72 | 0.306 | 0.951 | > 10 | 0.881 | > 20 | 0.843 | 3780 | 0.406 | 0.651 | 0.981 | > 10 | 0.709 | 1.43 | 0.714 | 2.98 | 0.979 | > 1
11 | HUTU-80 (digestive system, adherent) | 0.99 | > 10 | 0.923 | > 1 | 0.891 | 8.19 | 0.934 | > 20 | 0.761 | 1200 | 0.08 | < 0.0781 | 0.991 | > 10 | 0.832 | 2.52 | 0.807 | 4.19 | 0.991 | > 1
12 | MLMA (hairy cell leukaemia, semi-adherent) | 0.785 | 4.31 | 0.887 | > 1 | 0.897 | > 10 | 0.798 | 9.66 | 0.252 | 48.2 | 0.213 | 0.177 | 0.986 | > 10 | 0.908 | > 5.12 | 0.72 | 2.7 | 0.984 | > 1
13 | NCI-H847 (small cell lung carcinoma, adherent) | 0.841 | 5.11 | 0.992 | > 1 | 0.986 | > 10 | 0.919 | > 20 | 0.716 | 887 | 0.153 | 0.146 | 0.993 | > 10 | 0.975 | > 5.12 | 0.577 | 0.997 | 0.992 | > 1
14 | SNB75 (glioma, adherent) | 0.883 | > 10 | 0.64 | 0.183 | 0.946 | > 10 | 0.976 | > 20 | 0.563 | 401 | 0.818 | 18.9 | 0.977 | > 10 | 0.95 | > 5.12 | 0.835 | > 10.2 | 0.976 | > 1
15 | EKVX (lung adenocarcinoma, adherent) | 0.965 | > 10 | 0.821 | > 1 | 0.912 | > 10 | 0.97 | > 20 | 0.594 | 607 | 0.804 | > 20 | 0.962 | > 10 | 0.933 | > 5.12 | 0.884 | > 10.2 | 0.903 | > 1
16 | MES-SA (uterus, adherent) | 0.932 | > 10 | 0.315 | 0.0207 | 0.919 | > 10 | 0.991 | > 20 | 0.735 | 1040 | 0.947 | > 20 | 0.992 | > 10 | 0.99 | > 5.12 | 0.959 | > 10.2 | 0.991 | > 1
17 | OVCAR-4 (ovary, adherent) | 0.959 | > 10 | 0.899 | > 1 | 0.945 | > 10 | 0.892 | > 20 | 0.376 | 96.3 | 0.553 | 1.87 | 0.945 | > 10 | 0.906 | > 5.12 | 0.839 | > 10.2 | 0.97 | > 1
18 | AsPC-1 (pancreas, adherent) | 0.969 | > 10 | 0.649 | 0.217 | 0.942 | > 10 | 0.851 | > 20 | 0.764 | 2610 | 0.832 | > 20 | 0.868 | > 10 | 0.787 | 4.29 | 0.897 | > 10.2 | 0.968 | > 1
19 | LoVo (large intestine, adherent) | 0.986 | > 10 | 0.935 | > 1 | – | – | 0.987 | > 20 | 0.702 | 935 | 0.884 | > 20 | 0.973 | > 10 | 0.898 | > 5.12 | 0.969 | > 10.2 | 0.986 | > 1
20 | SK-N-AS (neuroblastoma, adherent) | 0.979 | > 10 | 0.954 | > 1 | 0.87 | > 10 | 0.943 | > 20 | 0.648 | 688 | 0.37 | 0.517 | 0.984 | > 10 | 0.876 | > 5.12 | 0.816 | 6.8 | 0.981 | > 1
21 | NB-4 (acute myeloid leukaemia, suspension) | 0.731 | 2.44 | 0.649 | 0.149 | 0.882 | 7.31 | 0.829 | 9.45 | 0.411 | 150 | 0.342 | 0.499 | 0.977 | > 10 | 0.51 | 0.339 | 0.417 | 0.395 | 0.986 | > 1
22 | UACC-62 (melanoma, adherent) | 0.977 | > 10 | 0.748 | 0.317 | 0.936 | > 10 | 0.978 | > 20 | 0.819 | 2240 | 0.792 | 8.96 | 0.988 | > 10 | 0.973 | > 5.12 | 0.987 | > 10.2 | 0.987 | > 1
23 | SF295 (glioma, adherent) | 0.968 | > 10 | 0.527 | – | 0.892 | > 10 | 0.985 | > 20 | 0.571 | 398 | 0.476 | 1.07 | 0.919 | > 10 | 0.985 | > 5.12 | 0.956 | > 10.2 | 0.973 | > 1
24 | C-4-I (cervix, adherent) | 0.985 | > 10 | 0.493 | 0.0599 | 0.893 | > 10 | 0.986 | > 20 | 0.782 | 1820 | 0.901 | > 20 | 0.981 | > 10 | 0.985 | > 5.12 | 0.976 | > 10.2 | – | –
25 | LB647-SCLC (small cell lung carcinoma, semi-adherent) | 0.662 | 1.87 | 0.967 | > 1 | 0.969 | > 10 | – | – | 0.756 | 1510 | – | – | 0.982 | > 10 | – | – | – | – | 0.983 | > 1
26 | MMAC-SF (melanoma, adherent) | 0.829 | 6.62 | 0.55 | 0.0863 | – | – | 0.987 | > 20 | 0.684 | 837 | 0.687 | 4.29 | 0.96 | > 10 | 0.987 | > 5.12 | 0.904 | > 10.2 | 0.986 | > 1
27 | HuH-7 (liver, adherent) | 0.826 | 6.04 | 0.939 | > 1 | 0.946 | > 10 | 0.975 | > 20 | 0.308 | 72.4 | 0.473 | 1.06 | 0.982 | > 10 | 0.973 | > 5.12 | – | – | 0.986 | > 1

— the supplement of paper PMC4967469
